Test results as given in PubChem BioAssay AID720709 (National Center for Advancing Translational Sciences (NCATS), 2013).
The campaign covered roughly 360,000 compounds. About 520 (0.14%) were called active. Inconclusive means that the source gave no clear call. Such entries were picked first, then a sample of the others. Calls follow the shape of the dose curve; as a rule, active = well fitted inhibition curve with a large enough effect; inconclusive = small, poorly fitted or top-dose-only effect; inactive = no such curve, though single readings can be large or run the other way. Where the call is inconclusive, the potency comes from a doubtful curve fit.

biological target: Rap guanine nucleotide exchange factor 3 (Homo sapiens) (UniProt O95398); assay: qHTS for Antagonist of cAMP-regulated guanine nucleotide exchange factor 3 (EPAC1): primary screen; settings: EPAC1 GEF assay, Rap1b-BODIPY-GDP exchange fluorescence; activity change, negative = inhibition: at 115 µM (top of the series); also: nearly all actives have a fitted effect of over 50% in size;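 as to activity change, negative = inhibition: plate controls were vehicle for no effect and positive control for full effect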
Potency is read from the fitted curve at half-maximal effect; tags tell the direction and shape of the fitted curve.

Chain of UniProt O95398 (O95398 whole entry, looked up): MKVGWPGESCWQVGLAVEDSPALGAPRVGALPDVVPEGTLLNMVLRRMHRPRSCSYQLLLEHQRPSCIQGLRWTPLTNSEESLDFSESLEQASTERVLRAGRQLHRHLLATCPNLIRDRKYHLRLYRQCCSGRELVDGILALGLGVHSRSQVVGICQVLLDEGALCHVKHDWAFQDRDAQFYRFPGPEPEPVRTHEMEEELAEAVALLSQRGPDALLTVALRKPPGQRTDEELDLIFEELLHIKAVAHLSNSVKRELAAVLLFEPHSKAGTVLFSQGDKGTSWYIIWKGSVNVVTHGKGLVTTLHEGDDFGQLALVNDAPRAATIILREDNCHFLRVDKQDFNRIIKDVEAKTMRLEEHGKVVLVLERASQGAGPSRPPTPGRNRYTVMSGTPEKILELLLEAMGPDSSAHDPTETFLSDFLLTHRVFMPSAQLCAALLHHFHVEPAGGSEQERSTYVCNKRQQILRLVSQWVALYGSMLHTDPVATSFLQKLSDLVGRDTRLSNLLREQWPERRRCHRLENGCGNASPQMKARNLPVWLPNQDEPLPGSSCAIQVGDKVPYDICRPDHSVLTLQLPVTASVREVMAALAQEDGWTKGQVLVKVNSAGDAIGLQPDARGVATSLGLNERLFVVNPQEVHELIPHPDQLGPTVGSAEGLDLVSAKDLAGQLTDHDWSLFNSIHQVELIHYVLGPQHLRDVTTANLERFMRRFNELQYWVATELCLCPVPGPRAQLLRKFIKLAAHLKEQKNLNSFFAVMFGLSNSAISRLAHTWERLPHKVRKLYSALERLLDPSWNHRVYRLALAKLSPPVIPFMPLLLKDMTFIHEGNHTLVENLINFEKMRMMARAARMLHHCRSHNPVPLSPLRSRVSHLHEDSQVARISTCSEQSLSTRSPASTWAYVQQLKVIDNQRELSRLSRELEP

Potency, active:
Cc1c(CCC(=O)O)c(=O)oc2c(C)c3occ(-c4ccc(Cl)cc4)c3cc12 39.8 µM

Potency, inconclusive:
Nc1cc2nsnc2cc1Br 7.94 µM [inhibitor, full curve]
O=S(=O)(N[C@@H]1C[C@H]2CC[C@@H]1C2)c1cccs1 2.82 µM [inhibitor, full curve, poor fit]
O=C(Nc1cccc(Cl)c1)Nc1ccccc1NS(=O)(=O)c1cccs1 31.6 µM [inhibitor, partial curve]
NC(=S)N/N=C/c1c(O)ccc2ccccc12 35.5 µM [inhibitor, partial curve]
CC(C)N1CCCC(C)(C(=O)Nc2ccc3c(c2)OCO3)C1 (stereo not drawn) 89.1 µM [inhibitor, single point]
O=C(COc1ccccc1F)NC12CC3CC(CC(C3)C1)C2 3.55 µM [inhibitor, full curve, poor fit]
CCOC(=O)CCNC(=O)N1CCCC(N2CCN(c3ccc(OC)cc3)CC2)C1 (stereo not drawn) 25.1 µM [inhibitor, full curve, poor fit]
Cc1ccc(CCNS(=O)(=O)c2ccc3c(c2)NC(=O)CCS3)cc1 100 µM [inhibitor, single point]
CCc1ccc2oc(C(=O)N3CCN(c4ccc(OC)cc4)CC3)cc(=O)c2c1 44.7 µM [inhibitor, partial curve]
O=C(CCn1nc(-c2ccc(Cl)cc2)ccc1=O)N1CCN(c2ccccn2)CC1 56.2 µM [inhibitor, partial curve, poor fit]
Cc1ccc(S(=O)(=O)/N=C2\SC(CC(=O)Nc3ccc(F)cc3)C(=O)N2c2ccccc2)cc1 (stereo not drawn) 14.1 µM [inhibitor, full curve]
Cn1cccc1C1C=C(c2ccc(C(C)(C)C)cc2)Nc2ncnn21 (stereo not drawn) 79.4 µM [inhibitor, partial curve]
Cc1ccc(NCC(=O)N/N=C/c2ccc(-c3cccc(C(F)(F)F)c3)o2)cc1 56.2 µM [inhibitor, partial curve]
CC1(C2CC(=O)c3c(O)ccc(O)c3C2)OCCO1 (stereo not drawn) 100 µM [inhibitor, single point]
Cc1ccc(NC(=O)COC(=O)C2COc3ccccc3O2)cc1S(=O)(=O)N1CCOCC1 (stereo not drawn) 100 µM [inhibitor, single point]
COc1ccc(C(=O)N[C@H](C(=O)OCc2cc(=O)oc3cc(C)ccc23)C(C)C)cc1 89.1 µM [inhibitor, single point]
Nn1cc(-c2ccccc2)nc1SCC(=O)Nc1cccc(S(N)(=O)=O)c1 39.8 µM [inhibitor, partial curve, poor fit]
Cc1c(CCC(=O)O)c(=O)oc2cc3occ(-c4ccc(Br)cc4)c3cc12 35.5 µM [inhibitor, partial curve, poor fit]
CC(C)(C)c1ccc(Oc2ncccc2NC(=O)c2cccs2)cc1 50.1 µM [inhibitor, partial curve, poor fit]
O=C(c1ccco1)N(Cc1ccc(Cl)cc1)Cc1ccco1 100 µM [inhibitor, partial curve, poor fit]
NC(=O)CSc1nc2c(c(=O)n1-c1ccccc1)C1(CCCCC1)Cc1ccccc1-2 79.4 µM [inhibitor, partial curve]
CC(Oc1ccc(Cl)cc1Cl)C(=O)NNC(=O)C(=O)N1CCCC1 (stereo not drawn) 56.2 µM [inhibitor, partial curve]
c1ccc(OCCNc2ccn3nc(-c4ccccc4)cc3n2)cc1 50.1 µM [inhibitor, partial curve]
Cc1ccc2c(c1)N(C(=O)CCC(=O)NC1CCCCCC1)CC(C)O2 (stereo not drawn) 39.8 µM [inhibitor, single point]
NC(=O)c1nsc(C(=O)N(c2ccc(F)cc2)C(C(=O)NCC2CCCO2)c2c[nH]c3ccccc23)c1N (stereo not drawn) 22.4 µM [inhibitor, single point]
CCc1cc(C(=O)COc2ccc(F)cc2)c(O)cc1O 22.4 µM [inhibitor, full curve, poor fit]
CC(C)Oc1ccc(C(=O)N/N=C/c2ccc(-c3ccc(S(=O)(=O)Nc4ncccn4)cc3)o2)cc1 70.8 µM [inhibitor, partial curve]
COC(=O)C(NC(=O)c1ccc(F)cc1)(Nc1ncc(S(=O)(=O)c2ccc([N+](=O)[O-])cc2)s1)C(F)(F)F (stereo not drawn) 79.4 µM [inhibitor, partial curve]

Activity change, negative = inhibition, inactive:
COc1ccc(CC(=O)Nc2ccc(C(N)=O)cc2)cc1 -21.2%
O=C1C=CC(=C(c2ccc(O)cc2)c2ccc(O)cc2)C=C1 -16.1%
Cc1c(C2(c3c(C)n(C)n(-c4ccccc4)c3=O)C(=O)Nc3ccc(F)cc32)c(=O)n(-c2ccccc2)n1C 3.49%
CCN(CC)C(=O)C1=C(C)N(Cc2ccccc2)C(=O)C(CC(=O)NCc2cccs2)C1 (stereo not drawn) -3.86%
CC(=O)NC1=C(NC2CCS(=O)(=O)C2)C(=O)c2ccccc2C1=O (stereo not drawn) -5.71%
CCC(=O)N(CCc1ccccc1)Cc1cc2cc3c(cc2[nH]c1=O)OCO3 9.77%
COc1cc(/C=C2\C(=O)ON=C2c2ccccc2)cc(OC)c1OC 15.9%
CC(C)CN(C(=O)CSc1nc2ccccc2o1)c1c(N)n(Cc2ccccc2)c(=O)[nH]c1=O 2.93%
O=[N+]([O-])c1cccc(NC(=S)N2CCOCC2)c1 9.06%
CC(=O)Oc1ccc2c(c1)C(=O)c1ccccc1CO2 -3.82%
Clc1ccc(-c2noc(CN3CCOCC3)n2)cc1 8.58%
COc1ccc(CCn2c(=N)c(S(=O)(=O)c3ccc(Cl)cc3)cc3c(=O)n4ccccc4nc32)cc1 -4.91%
Cc1ccc(-c2cc(C(=O)Nc3ccc4c(c3)OCCO4)c3ccccc3n2)cc1 -5.38%

Activity change, negative = inhibition, inconclusive:
O=C1CCC(C(=O)NCc2ccc3c(c2)OCO3)N1 (stereo not drawn) -31.8% [inhibitor]
